From PubChem BioAssay AID1347165 (National Center for Advancing Translational Sciences (NCATS), 2019)
The campaign covered roughly 220,000 compounds. About 5,700 (2.6%) were called active. This list was built around the results that the source calls inconclusive (neither active nor inactive); the mix of calls is not that of the screen. Calls come from the whole dose curve; as a rule, active = well fitted inhibition curve with a large enough effect; inconclusive = small, poorly fitted or top-dose-only effect; inactive = no such curve, though single readings can be large or run the other way. A potency beside an inconclusive call is a rough fit, not a confirmed value.

These molecules were tested against Lysine-specific demethylase 5B (Homo sapiens) (UniProt Q9UGL1) (assay: Primary screen for KDM5B Histone Demethylases FDH-coupled qHTS). Details: FDH-coupled NADH fluorescence (FDH is formaldehyde dehydrogenase); activity change, negative = inhibition: at 57.7 µM (top of the series) unless noted.
Sequence of UniProt Q9UGL1 (Q9UGL1 whole entry, looked up): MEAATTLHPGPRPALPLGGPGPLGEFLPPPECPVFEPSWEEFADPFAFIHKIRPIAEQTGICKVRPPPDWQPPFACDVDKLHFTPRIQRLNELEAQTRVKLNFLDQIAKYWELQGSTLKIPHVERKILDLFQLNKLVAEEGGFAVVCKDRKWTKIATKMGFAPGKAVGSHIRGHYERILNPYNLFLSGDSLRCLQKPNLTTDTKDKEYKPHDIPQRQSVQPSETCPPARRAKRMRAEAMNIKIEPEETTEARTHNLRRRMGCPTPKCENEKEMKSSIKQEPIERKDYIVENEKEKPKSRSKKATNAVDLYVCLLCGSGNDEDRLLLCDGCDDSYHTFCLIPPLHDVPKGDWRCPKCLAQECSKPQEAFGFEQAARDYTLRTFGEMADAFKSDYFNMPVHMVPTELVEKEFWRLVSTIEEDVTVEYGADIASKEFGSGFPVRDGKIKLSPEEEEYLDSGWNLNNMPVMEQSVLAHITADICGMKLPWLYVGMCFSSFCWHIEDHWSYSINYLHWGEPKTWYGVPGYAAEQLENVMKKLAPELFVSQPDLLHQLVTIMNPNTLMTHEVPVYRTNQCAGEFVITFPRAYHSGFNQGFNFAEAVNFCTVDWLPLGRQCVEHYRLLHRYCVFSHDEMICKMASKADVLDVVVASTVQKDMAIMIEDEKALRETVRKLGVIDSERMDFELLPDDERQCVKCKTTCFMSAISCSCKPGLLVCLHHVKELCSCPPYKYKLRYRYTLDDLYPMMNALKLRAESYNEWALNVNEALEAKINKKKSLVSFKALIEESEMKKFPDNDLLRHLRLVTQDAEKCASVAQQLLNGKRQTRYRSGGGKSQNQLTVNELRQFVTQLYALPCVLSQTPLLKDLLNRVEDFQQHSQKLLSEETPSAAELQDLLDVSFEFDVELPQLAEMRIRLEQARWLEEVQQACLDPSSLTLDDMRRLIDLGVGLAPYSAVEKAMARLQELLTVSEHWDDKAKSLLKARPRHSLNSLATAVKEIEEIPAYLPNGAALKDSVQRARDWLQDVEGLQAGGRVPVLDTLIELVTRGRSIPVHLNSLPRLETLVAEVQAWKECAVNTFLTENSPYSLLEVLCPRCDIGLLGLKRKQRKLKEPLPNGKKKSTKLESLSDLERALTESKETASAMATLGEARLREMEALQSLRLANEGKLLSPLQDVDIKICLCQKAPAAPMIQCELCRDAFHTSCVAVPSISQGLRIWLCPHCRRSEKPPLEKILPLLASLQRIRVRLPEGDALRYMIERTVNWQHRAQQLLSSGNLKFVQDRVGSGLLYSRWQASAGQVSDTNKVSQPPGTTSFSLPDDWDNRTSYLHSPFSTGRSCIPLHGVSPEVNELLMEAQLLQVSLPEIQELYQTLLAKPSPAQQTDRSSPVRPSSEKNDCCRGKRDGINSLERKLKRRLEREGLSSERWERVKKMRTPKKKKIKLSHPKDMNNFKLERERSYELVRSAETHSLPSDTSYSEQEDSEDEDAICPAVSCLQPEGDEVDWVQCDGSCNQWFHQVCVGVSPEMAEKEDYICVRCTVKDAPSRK
Procedure, shortened: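 KDM5BΔAP (200 nM final) in 50 mM HEPES pH 7.5, 0.01% Tween-20 was preincubated 10 min at RT with compound over a concentration range. Substrate mix (H3K4me3 12.5 µM, α-KG 25 µM, Fe²⁺, ascorbate, NAD⁺, FDH) was added, and NADH fluorescence change over 30 min gave dose-response curves.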
Note: nearly all actives have a fitted effect of over 70% in size.
Potency is the fitted concentration of half-maximal effect; tags give direction and shape of the fitted curve.
Throughout, for activity change, negative = inhibition: 0% is about no effect.

SMILES | Potency | activity change, negative = inhibition
Cc1ccc(C(CNC(=O)c2cc3ccccc3oc2=O)N2CCCC2)o1 (stereo unspecified) | inconclusive: 31.6 µM [inhibitor, single point] | 
O=C(Nc1ccc(F)c(Cl)c1)c1cc2n(n1)CC(c1ccc(Cl)cc1)OC2 (stereo unspecified) | active: 25.1 µM | 
O=C(CCNc1nc(Cl)nc2nc[nH]c12)NCCc1c[nH]c2ccccc12 | inconclusive: 39.8 µM [inhibitor, single point] | 
Cc1oc(-c2cccs2)nc1CC(=O)N1CCC1 | inconclusive: 25.1 µM [inhibitor, partial curve, poor fit] | 
Cc1c(Cl)cccc1NC(=O)c1cccc(NC(=O)N2CCSc3ncccc32)c1 | inconclusive: 28.2 µM [inhibitor, partial curve, poor fit] | 
O=C(/C=C/c1cccc2ccccc12)c1cccs1 |  | inactive: -22.2%
CCOC(=O)CC(NC(=O)CCc1c(C)nc2c(c(C)nn2-c2ccc(C)c(C)c2)c1C)c1ccc(C)cc1 (stereo unspecified) | inconclusive: 1.26 µM [inhibitor, partial curve, poor fit] | 
Cc1cc(C)cc(OCC(=O)Nc2nc3c(s2)CC(C(C)(C)C)CC3)c1 (stereo unspecified) |  | inconclusive: -31.9% [inhibitor]
Cc1ccc(C)c(-n2nnc(-c3nc(-c4ccccc4F)no3)c2C)c1 |  | inactive: 6.81%
CCc1sc(C(N)=O)cc1C |  | inactive: 23.8%
COc1cccc(C(=O)NCCn2ccn3nc(-c4ccc(C)c(C)c4)cc3c2=O)c1OC | active: 35.5 µM | 
Cc1cc(C)c(NC(=O)C(C)n2c(=O)c(C(F)(F)F)nc3ccccc32)c(C)c1 (stereo unspecified) |  | inconclusive: -36.5% [inhibitor]
CC1CCCCN1C(=O)C1COC2(CCN(C(=O)c3ccco3)CC2)N1C(=O)c1ccccc1 (stereo unspecified) |  | inactive: 8.77%
O=C(NC1CCc2n[nH]c(=O)n2CC1)c1n[nH]c2ccccc12 (stereo unspecified) | inconclusive: 6.31 µM [inhibitor, partial curve, poor fit] | 
Cc1noc(C)c1-c1cc2c(c(-c3ccc([S+](C)(=O)[O-])cc3)c1)C(=O)N(C)C2 | inconclusive: 39.8 µM [inhibitor, partial curve, poor fit] | 
Cc1ccc(S(=O)(=O)N(CC(=O)NCc2ccncc2)c2ccc(C)c(Cl)c2)cc1 |  | inactive: 1.96%
O=C(OCc1cc(=O)oc2cc3c(cc12)CCC3)C1CCCO1 (stereo unspecified) | inconclusive: 20 µM [inhibitor, partial curve, poor fit] | 
Oc1ccccc1C=Nc1ccc(Cl)c(C(F)(F)F)c1 |  | inactive: 13.1%
CCc1nnc(NC(=O)c2nc(S(=O)(=O)Cc3ccc(C)cc3)ncc2Cl)s1 | inconclusive: 15.8 µM [inhibitor, partial curve, poor fit] | 
CCN(c1cccc(C)c1)S(=O)(=O)c1ccc(N2CCCCS2(=O)=O)cc1 | inconclusive: 31.6 µM [inhibitor, single point] | 
COc1ccc(NC(=O)c2ccc(-c3nc(CSc4ccc(C)cc4)c(C)o3)cc2)cc1Cl | inconclusive: 39.8 µM [inhibitor, single point] | 
COc1ccc(-c2c3c(=O)n(C)c(=O)n(C)c3c3n2-c2ccccc2NC3c2ccc(OC)cc2)cc1 (stereo unspecified) | inconclusive: 35.5 µM [inhibitor, partial curve, poor fit] | 

SMILES | Potency | activity change, negative = inhibition
Cc1cc(C)n2ncc(C(=O)N3CCC(=O)N(CC4CC4)C(C(C)C)C3)c2n1 (stereo unspecified) | active: 31.6 µM | 
COc1ccc(Cl)cc1C(=O)NC1CCN(c2cc(-c3ccccc3)[nH]n2)C1 (stereo unspecified) | inconclusive: 10 µM [inhibitor, partial curve, poor fit] | 
O=C(Nc1ccc(C(=O)N2CCN(c3cccc(Cl)c3)CC2)cc1)c1nsc2ccccc12 | inconclusive: 31.6 µM [inhibitor, partial curve, poor fit] | 
O=C(c1cc2c(ccc3ccccc32)o1)N1CCCCC1 |  | inactive: -8.87%
CN(CCOc1ccccc1)C(=O)c1cc(Cl)c[nH]1 |  | inactive: 12.2%
CCCn1c(N2CCN(CC(N)=O)CC2)nc2c1c(=O)[nH]c(=O)n2C |  | inactive: 9.91%
COc1ccc(-c2[nH]c(-c3cccc(OC)c3)nc2SCC(=O)Nc2ccc3c(c2)OCO3)cc1 | inconclusive: 22.4 µM [inhibitor, partial curve, poor fit] | 
O=C(OCc1cnc(-c2ccccc2)s1)c1ccc(S(=O)(=O)N2CCCC2)cc1 |  | inactive: 7.27%
COc1cccc(CNC(=O)Cn2c(=O)ccc3cc(S(=O)(=O)N4CCC(C)CC4)ccc32)c1 | inconclusive: 28.2 µM [inhibitor, partial curve, poor fit] | 
CCN1CCC(NCc2cccnc2N2CCN(c3ccccn3)CC2)CC1 | inconclusive: 15.8 µM [inhibitor, partial curve, poor fit] | 
CC(C)CCn1c(=O)c2cccnc2n(CC(=O)Nc2ccc(F)cc2)c1=O | inconclusive: 31.6 µM [inhibitor, partial curve, poor fit] | 
CCC(=O)Nc1cccc(C(=O)Nc2nnc(C3CC(=O)N(c4ccc(C)c(C)c4)C3)s2)c1 (stereo unspecified) | inconclusive: 25.1 µM [inhibitor, single point] | 
Cc1cc2nnc(SCc3ccc(F)cc3)n2c2ccccc12 | inconclusive: 31.6 µM [inhibitor, partial curve, poor fit] | 
CN(Cc1ccccc1)C(=O)C[C@@H]1CCNC[C@@H]1Cc1cc(CC2CCCCC2)on1 | inconclusive: 63.1 µM [inhibitor, partial curve, poor fit] | 
COc1ccccc1/C=C/CN1CCn2nc(CO)cc2C1 | active: 28.2 µM | 
CC(C)Nc1ccc(-c2ccc(S(=O)(=O)NC(C)(C)C)cc2)nn1 | inconclusive: 31.6 µM [inhibitor, single point] | 
Cc1ccc(NC(=O)N2CCc3c(c4cc(F)ccc4n3C)C2)cc1 | active: 14.1 µM | 
Cc1cccc(OCCCC(=O)Nc2ccc3c(C)cc(=O)oc3c2)c1 | inconclusive: 5.01 µM [inhibitor, single point] | 
Cc1ccc(-c2nc(-c3nc(-c4cccs4)cs3)sc2C)cc1C |  | inactive: -6.84%
Cc1cc(OC(C)C(=O)NCc2cccnc2)c2c(C)cc(=O)oc2c1 (stereo unspecified) | inconclusive: 22.4 µM [inhibitor, partial curve, poor fit] | 
CCC1(C)CC(=O)c2c(ccc3oc(C(=O)NCc4ccccc4)c(C)c23)O1 (stereo unspecified) | inconclusive: 22.4 µM [inhibitor, partial curve, poor fit] | 
COc1ccc(Nc2cnc3ccc(-c4ccc(OC)nc4)nn23)cc1 |  | inactive: -21.5% [at 86.2 µM]

SMILES | Potency | activity change, negative = inhibition
CC(=O)Nc1nc2ccc(NC(=O)CCC(=O)N3CCCCCC3)cc2s1 |  | inactive: -1.8%
O=c1[nH]c(=O)n(Cc2ccccc2)c2c1C(C(F)(F)F)(C(F)(F)F)N=C(c1ccccn1)N2 |  | inactive: 5.61%
CCOc1ccc(C(=O)/C=C/c2cn(CC(O)CN3CCCCCC3)c3ccccc23)cc1 (stereo unspecified) | inconclusive: 17.8 µM [inhibitor, partial curve, poor fit] | 
COc1ccc(C(=O)Nc2cc(C)c(O)c(-c3nc4ccccc4o3)c2)cc1 |  | inactive: -9%
Cc1ccccc1OCc1ccc(-c2nc(C#N)c(NC3CC3)o2)o1 | inconclusive: 25.1 µM [inhibitor, partial curve, poor fit] | 
CC(C)CNC(=O)Cn1c(=O)c2c(ncn2C)n(C)c1=O |  | inactive: -7.71%
Cn1c(CCNC(=O)C2Cn3cccc3C(=O)N2)nc2ccccc21 (stereo unspecified) | inconclusive: 20 µM [inhibitor, partial curve, poor fit] | 
CS(=O)(=O)NC1CCN(Cc2cc(=O)c3cc(C(N)=O)ccc3[nH]2)CC1 | inconclusive: 22.4 µM [inhibitor, single point] | 
Cc1cccc(C)c1Nc1c(-c2ccccc2F)nc2cccc(C)n12 | inconclusive: 31.6 µM [inhibitor, partial curve, poor fit] | 
N#Cc1c(F)cccc1NCc1cccs1 | inconclusive: 10 µM [inhibitor, partial curve, poor fit] | 
COCCN1CCCN(C(=O)c2cccc(OC)c2)c2ccccc21 | inconclusive: 25.1 µM [inhibitor, single point] | 
COc1cccc(-c2nn(C)c3sc(C(=O)NCc4cc(OC)ccc4OC)cc23)c1 | inconclusive: 31.6 µM [inhibitor, partial curve, poor fit] | 
Cc1ccc(-c2cc3c(=O)n(CCNC(=O)c4ccc(Cl)cc4)ccn3n2)c(C)c1 |  | inactive: -16.1%
CCCN(Cc1nccn1C)C(=O)c1cn(Cc2ccc(F)cc2)nn1 |  | inactive: 13.4%
O=C(C1CCCC1)N1Cc2ccccc2CC2(CCN(CC3CCNC3)C2)C1 (stereo unspecified) | inconclusive: 70.8 µM [inhibitor, partial curve] | 
O=C(CCS(=O)(=O)c1nc(-c2cccs2)cc(C(F)(F)F)n1)Nc1ccc(OC(F)(F)F)cc1 |  | inactive: -71.2%
CC(C)N1C[C@H](O)C[C@H]1c1nnc2n1CCN(C(=O)COc1ccc(F)cc1)C2 | inconclusive: 39.8 µM [inhibitor, partial curve, poor fit] | 
COC(=O)c1ccccc1NC(=O)C1=CC(c2ccc(C)cc2)=NS(=O)(=O)N1C | inconclusive: 31.6 µM [inhibitor, single point] | 
COC(=O)[C@@H]1Cc2c([nH]c3ccccc23)[C@H]2C[C@@H](NCCNC(C)=O)C[C@@H](c3ccc(C)cc3)N21 | active: 28.2 µM | 
CC(C)NC(=O)c1csc(-c2cccc(OC(C)C)c2)n1 | inconclusive: 22.4 µM [inhibitor, single point] | 
c1ccc2[nH]c(-c3nn4c(C5CCCCC5)nnc4s3)cc2c1 | inconclusive: 31.6 µM [inhibitor, partial curve, poor fit] | 
NC(=O)C1(N2CCCCC2)CCN(c2nccc(-c3ccccn3)n2)CC1 | inconclusive: 31.6 µM [inhibitor, partial curve, poor fit] | 
